According to the supplement of paper PMC10369915:
The list shows a part of the results. Rule as the data show it: active = 3.2 or more and inactive = the rest. Only a few entries rise above the background.

Each binder was assayed against SHP2 C-SH2 domain E139D (assay: enrichment score (SH2-bound / input frequency) (ratio); bacterial display of known human phosphotyrosine sites (pTyr-Var adds point mutants) read by sequencing; higher = stronger binding; tyrosines were phosphorylated by kinases first). Conditions: peptide library: pTyr-Var.
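Also: displayed peptides selected on beads carrying the immobilized SH2 domain, with library peptides lacking any tyrosine serving as negative controls.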

Enrichment score, inactive:
NFYEYYVDDPP [GCHFR_Y48] 0.96
ENGPFYASFPP [GDAP2_Y488_T489A_YF] 0.914
GDEVEYMSVSF [GCLC_Y53_L55S] 0.694
PYYTSYPPSPD [GDAP2_Y491] 0.833
NFYEYYVDDPL [GCHFR_Y48_P53L] 1.16
RENGPYFTSFP [GDAP2_Y487_YF] 0.806
SSVPDYLAAVD [GLB1_Y154_D151V] 0.916
RFLKDYGEFEV [GINS1_Y156_C152Y_YF] 1.12
KVDKEYEVRVR [GHR_Y226] 0.812
RYLKDYGEFEV [GINS1_Y156_C152Y] 0.849
DTCPPYVLSQV [GJB4_Y237_G242V] 0.816
PIQLFYTRKNT [GHR_Y86_R89K] 0.24
SDVNKYSTAFG [GJB3_Y16_G12D] 0.616
PKEQKYSFLQD [GH1_Y68_N73D] 0.723
EIRTQDEAMAS [GFAP_Y242_Y242D] 0.352
SDQPDYDSVAS [GIT2_Y392_N387S] 0.46
VDGSVYKLHPS [GCK_Y413] 0.732
DTCPPYVLSQG [GJB4_Y237] 0.766
VNFDYYTVNLG [GFPT1_Y367_D366Y] 1.92

These binders were tested against SHP2 C-SH2 domain wild-type in the same assay as above. Conditions: peptide library: pTyr-Var.

Enrichment score, inactive:
NFYEYYVDDPP [GCHFR_Y48] 1.02
ENGPFYASFPP [GDAP2_Y488_T489A_YF] 0.841
GDEVEYMSVSF [GCLC_Y53_L55S] 0.64
PYYTSYPPSPD [GDAP2_Y491] 0.79
NFYEYYVDDPL [GCHFR_Y48_P53L] 1.03
RENGPYFTSFP [GDAP2_Y487_YF] 0.648
SSVPDYLAAVD [GLB1_Y154_D151V] 0.938
RFLKDYGEFEV [GINS1_Y156_C152Y_YF] 0.938
KVDKEYEVRVR [GHR_Y226] 0.726
RYLKDYGEFEV [GINS1_Y156_C152Y] 0.796
DTCPPYVLSQV [GJB4_Y237_G242V] 0.889
PIQLFYTRKNT [GHR_Y86_R89K] 0.271
SDVNKYSTAFG [GJB3_Y16_G12D] 0.61
PKEQKYSFLQD [GH1_Y68_N73D] 0.858
EIRTQDEAMAS [GFAP_Y242_Y242D] 0.294
SDQPDYDSVAS [GIT2_Y392_N387S] 0.437
VDGSVYKLHPS [GCK_Y413] 0.759
DTCPPYVLSQG [GJB4_Y237] 1.03
VNFDYYTVNLG [GFPT1_Y367_D366Y] 1.56

These binders were tested against SHP2 N-SH2 domain L43F in the same assay as above. Conditions: peptide library: pTyr-Var.

Enrichment score, inactive:
NFYEYYVDDPP [GCHFR_Y48] 0.743
ENGPFYASFPP [GDAP2_Y488_T489A_YF] 0.589
GDEVEYMSVSF [GCLC_Y53_L55S] 0.819
PYYTSYPPSPD [GDAP2_Y491] 0.911
NFYEYYVDDPL [GCHFR_Y48_P53L] 0.932
RENGPYFTSFP [GDAP2_Y487_YF] 0.683
SSVPDYLAAVD [GLB1_Y154_D151V] 0.797
RFLKDYGEFEV [GINS1_Y156_C152Y_YF] 1.04
KVDKEYEVRVR [GHR_Y226] 0.634
RYLKDYGEFEV [GINS1_Y156_C152Y] 0.811
DTCPPYVLSQV [GJB4_Y237_G242V] 0.808
PIQLFYTRKNT [GHR_Y86_R89K] 0.372
SDVNKYSTAFG [GJB3_Y16_G12D] 0.657
PKEQKYSFLQD [GH1_Y68_N73D] 0.789
EIRTQDEAMAS [GFAP_Y242_Y242D] 0.371
SDQPDYDSVAS [GIT2_Y392_N387S] 0.379
VDGSVYKLHPS [GCK_Y413] 0.727
DTCPPYVLSQG [GJB4_Y237] 0.735
VNFDYYTVNLG [GFPT1_Y367_D366Y] 1.74

What follows are binders tested against SHP2 N-SH2 domain T42A in the same assay as above. Conditions: peptide library: pTyr-Var.

Enrichment score, inactive:
NFYEYYVDDPP [GCHFR_Y48] 0.938
ENGPFYASFPP [GDAP2_Y488_T489A_YF] 0.597
GDEVEYMSVSF [GCLC_Y53_L55S] 0.695
PYYTSYPPSPD [GDAP2_Y491] 0.968
NFYEYYVDDPL [GCHFR_Y48_P53L] 0.95
RENGPYFTSFP [GDAP2_Y487_YF] 0.419
SSVPDYLAAVD [GLB1_Y154_D151V] 0.825
RFLKDYGEFEV [GINS1_Y156_C152Y_YF] 0.707
KVDKEYEVRVR [GHR_Y226] 0.638
RYLKDYGEFEV [GINS1_Y156_C152Y] 0.683
DTCPPYVLSQV [GJB4_Y237_G242V] 0.552
PIQLFYTRKNT [GHR_Y86_R89K] 0.345
SDVNKYSTAFG [GJB3_Y16_G12D] 0.465
PKEQKYSFLQD [GH1_Y68_N73D] 0.622
EIRTQDEAMAS [GFAP_Y242_Y242D] 0.351
SDQPDYDSVAS [GIT2_Y392_N387S] 0.384
VDGSVYKLHPS [GCK_Y413] 0.597
DTCPPYVLSQG [GJB4_Y237] 0.594
VNFDYYTVNLG [GFPT1_Y367_D366Y] 1.83

The binders below were run against SHP2 N-SH2 domain T52S in the same assay as above. Conditions: peptide library: pTyr-Var.

Enrichment score, inactive:
NFYEYYVDDPP [GCHFR_Y48] 0.946
ENGPFYASFPP [GDAP2_Y488_T489A_YF] 0.661
GDEVEYMSVSF [GCLC_Y53_L55S] 0.528
PYYTSYPPSPD [GDAP2_Y491] 0.819
NFYEYYVDDPL [GCHFR_Y48_P53L] 1.08
RENGPYFTSFP [GDAP2_Y487_YF] 0.652
SSVPDYLAAVD [GLB1_Y154_D151V] 0.886
RFLKDYGEFEV [GINS1_Y156_C152Y_YF] 1.15
KVDKEYEVRVR [GHR_Y226] 0.678
RYLKDYGEFEV [GINS1_Y156_C152Y] 0.88
DTCPPYVLSQV [GJB4_Y237_G242V] 0.824
PIQLFYTRKNT [GHR_Y86_R89K] 0.285
SDVNKYSTAFG [GJB3_Y16_G12D] 0.589
PKEQKYSFLQD [GH1_Y68_N73D] 0.692
EIRTQDEAMAS [GFAP_Y242_Y242D] 0.411
SDQPDYDSVAS [GIT2_Y392_N387S] 0.513
VDGSVYKLHPS [GCK_Y413] 0.767
DTCPPYVLSQG [GJB4_Y237] 0.631
VNFDYYTVNLG [GFPT1_Y367_D366Y] 1.96

The binders below were run against SHP2 N-SH2 domain wild-type in the same assay as above. Conditions: peptide library: pTyr-Var.

Enrichment score, inactive:
NFYEYYVDDPP [GCHFR_Y48] 0.746
ENGPFYASFPP [GDAP2_Y488_T489A_YF] 0.815
GDEVEYMSVSF [GCLC_Y53_L55S] 0.739
PYYTSYPPSPD [GDAP2_Y491] 0.872
NFYEYYVDDPL [GCHFR_Y48_P53L] 1.08
RENGPYFTSFP [GDAP2_Y487_YF] 0.74
SSVPDYLAAVD [GLB1_Y154_D151V] 1
RFLKDYGEFEV [GINS1_Y156_C152Y_YF] 0.87
KVDKEYEVRVR [GHR_Y226] 0.752
RYLKDYGEFEV [GINS1_Y156_C152Y] 0.828
DTCPPYVLSQV [GJB4_Y237_G242V] 0.839
PIQLFYTRKNT [GHR_Y86_R89K] 0.328
SDVNKYSTAFG [GJB3_Y16_G12D] 0.701
PKEQKYSFLQD [GH1_Y68_N73D] 0.446
EIRTQDEAMAS [GFAP_Y242_Y242D] 0.356
SDQPDYDSVAS [GIT2_Y392_N387S] 0.459
VDGSVYKLHPS [GCK_Y413] 1
DTCPPYVLSQG [GJB4_Y237] 0.91
VNFDYYTVNLG [GFPT1_Y367_D366Y] 1.67
